This is an account of results in PMC12136788.

To fix the notation:
T1: UNK ZnF1-3 (human, UniProt Q9C0B0 31-174)
T1 sequence: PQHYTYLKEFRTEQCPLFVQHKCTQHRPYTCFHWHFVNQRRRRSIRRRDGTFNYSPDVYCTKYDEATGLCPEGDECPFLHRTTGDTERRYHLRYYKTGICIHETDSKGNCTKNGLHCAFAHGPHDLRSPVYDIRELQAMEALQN

B1: 103434694_103434927_2470_CDS_ENSG00000198752_ENST00000361246|human|control|control (ssRNA)
RNA: GGGAGUUCUACAGUCCGACGAUCCCGUUCUCGCUUUGACUUUUCUAACUUAUCUUUUAACAUCAAGAUUUCUUUCUGCAGGGCCAGCUGGUGGCUUUCUGAAUCAUGCACCUCCUUCUUCACAUUUUUCACUUCUAGCACAUGCAACAGAGGAUUGAGCAUCA
B2: chr10:107688926:107688927:+_ENSMUSG00000019907_ENSMUST00000070663|mus_mus|FALSE|FALSE (ssRNA)
RNA: GGGAGUUCUACAGUCCGACGAUCUUCAUUGAUCGAACUAUUCUUUUUAAGAUCAUCUUCCCAUUUUCUUCUUGUGUAAGAACUACUUGUUCGCAAACUUGAAGACUCUCUGUUCUCCUUCUCUUCAAUGUCAGAUGUACUGGCCAACAGAGGAUUGAGCAUCA
B3: chr22:32879901:32879902:+_ENSG00000100225_ENST00000397426|hu_mus|hu_hu_hu_mus_False|28_108 (ssRNA)
RNA: GGGAGUUCUACAGUCCGACGAUCCUCUGCCAUAUGCAUGGCAUCCUGAAUUGACUCAGCUUCAACAUUUUGACUAGGCCCUUCCAUACUGUCAUCAGUCCAGGCAUCAGACUGGGCGGCCUGUCCUUGGGAUGAAUCAGUCCCCAACAGAGGAUUGAGCAUCA
B4: chr4:76721835:76721836:+_ENSG00000138768_ENST00000264904|hu_mus|hu_hu_hu_mus_True|18_68 (ssRNA)
RNA: GGGAGUUCUACAGUCCGACGAUCGUUUGGCUGGGGUUUCUGAGACGCUCUGGAAUAUAACUCAUGUUGCUAAUAAAAUCCUAGUUUCUCUAUGAAAUUCUCUUUGCCAAUCCUCUUUCAAUCAGUUUGCUUUAGUUUCUCUUUCAACAGAGGAUUGAGCAUCA
B5: chr7:130337358:130337359:+_ENSMUSG00000052707_ENSMUST00000094053|mus_hu|FALSE|FALSE (ssRNA)
RNA: GGGAGUUCUACAGUCCGACGAUCUUUUUUUUUUAAACUGGGGAACUGGUUUUCCUGAGAACCAUGCUCUUUGAUUUGGGACAGGAAUAGAAAAACAAAAGAACAUGGCCAAAUGCUGCUCCUUUUUCCCAGAGAUAGAAAGCACAACAGAGGAUUGAGCAUCA
B6: 9449942_9450062_146_5pUTR_ENSMUSG00000024286_ENSMUST00000053917|mouse|control|control (ssRNA)
RNA: GGGAGUUCUACAGUCCGACGAUCUGGCGGGUGGCGCCGCGCAGGCCGCCUCCCACCGUGUUCUUGUUCAGCGCUCCGCUCCCAGCGGCGACUUCCGCAAGCGGUUCCGGUUCACGCCGGGGACACGCGAGUGCGCGCGGAUACCAACAGAGGAUUGAGCAUCA
B7: chr4:84185219:84185220:-_ENSG00000173085_ENST00000439031|hu_mus|FALSE|FALSE (ssRNA)
RNA: GGGAGUUCUACAGUCCGACGAUCGCUGUGACAGGGAGCUGGUUGAAAGCAGCUGCAGUAAAGUCCAGUACACGCUGCCCGAGUGCUUCUUACUUCUUUAACAGAUUGCUCAUCCAAGCCUAACAAUGUAGUCUUAAGCCCUGACAACAGAGGAUUGAGCAUCA
B8: chr18:50337633:50337634:+_ENSMUSG00000024507_ENSMUST00000025385|mus_hu|FALSE|FALSE (ssRNA)
RNA: GGGAGUUCUACAGUCCGACGAUCAUAUACUGGUUUUGCAAAACGAGCCUUAAUUGCCUUGAAUCUUGACACAUCAUUAUCUGCAAACUGCUGUAACACACGCCUGGCAGAAAAUCCAAAUGUACAUAAUCCAUGUAAUAUGGGCAACAGAGGAUUGAGCAUCA
B9: chr10:86154994:86154995:-_ENSMUSG00000020048_ENSMUST00000020238|mus_mus|FALSE|FALSE (ssRNA)
RNA: GGGAGUUCUACAGUCCGACGAUCCGCCUUGGUGUCUGGUAGAAGAUAUCCUGACCGAAGUGUUGCCGUUUCAAACAAAACUACAGCAAGAUCCAUGACUGUCUUGUCAUCUUCAUCUUCCUUAAUCCGCCGCAACAUGUCUCUCAACAGAGGAUUGAGCAUCA
B10: 184049334_184049575_4278_CDS_ENSG00000114867_ENST00000411531|human|control|control (ssRNA)
RNA: GGGAGUUCUACAGUCCGACGAUCAGCCGUCAUGAGGGCUCGAACUAACGUGUUGGAUACUAUCUGCUGCUCACUCAGGUUGGCCUCUAUCCAGUCGAACACCCGCUGGUUACUGCUGCCCUCCUUCAGCAGCUUCUCCAGCUGCAACAGAGGAUUGAGCAUCA
B11: chr1:29344887:29344888:+_ENSG00000159023_ENST00000356093|perfect_dup|FALSE|FALSE (ssRNA)
RNA: GGGAGUUCUACAGUCCGACGAUCUUCCAUGACCUUCUCUUCAAGUUCCUUGGUCUGAUUCGGGGCCAGUUUAAAAUCACUAACAUAAUCCACGCCAUGGAGUUCUGGGUCGUAGUCUCCCAGUUCAGACUGGAUGGUGUAAGACAACAGAGGAUUGAGCAUCA
B12: chr6:40197388:40197389:+_ENSMUSG00000057716_ENSMUST00000061740|mus_mus|mus_mus_mus_hu_False|78_108 (ssRNA)
RNA: GGGAGUUCUACAGUCCGACGAUCGAGUUGUCAGUUUGGAUUUAUUCCACCUCUGUUUGCUAGCCUCCCACUAAGACUGUUAUUUUGGGAUUCAUGGCCUUGAAUAUCAAGAGGGAAAGGAAGAGGAUGGAAAGAGUCAAGAGUCAACAGAGGAUUGAGCAUCA
B13: 40027678_40027798_1884_CDS_ENSG00000065883_ENST00000340829|human|control|control (ssRNA)
RNA: GGGAGUUCUACAGUCCGACGAUCGGUGACUAAAGCUACAUGUUGCUCCUUCUCCUUGGCUCCUAUGCUUGGUGUAAGUGGUUUGGUUUUCUCUUUAAGAGAUACUGAUUCCUCCUUUGUAGCAGCAGAUUUACUCUCCUUUCCCAACAGAGGAUUGAGCAUCA
B14: 124788451_124788571_2579_3pUTR_ENSMUSG00000028863_ENSMUST00000154689|mouse|control|control (ssRNA)
RNA: GGGAGUUCUACAGUCCGACGAUCGGUUGACAUGGCACUGAGGGUCGACCCCCUGCAUGCUAGACAAUUACUCCGUCACUGAGCUAUGCCACUCGUCUUCUUGAUGCCCUUAUUCGAUGCUACCCAGAAAUAGGGAAAGCAAGUCAACAGAGGAUUGAGCAUCA
B15: chr14:21343309:21343310:-_ENSMUSG00000021816_ENSMUST00000161445|mus_mus|FALSE|FALSE (ssRNA)
RNA: GGGAGUUCUACAGUCCGACGAUCAGGAUCAGACCAUAGCAAGUCACACAUUGGUCCAAAUGCAGGUGGCUCUUUAAAUCUAUCUAAUCUCCUAAUAUCAUCCAGUGUGUGUAUUUCUGGUGAAAGUCCACCAUGAACACAAAGCAACAGAGGAUUGAGCAUCA
B16: chr7:54823571:54823572:-_ENSG00000132432_ENST00000352861|hu_mus|hu_hu_hu_mus_False|1_48 (ssRNA)
RNA: GGGAGUUCUACAGUCCGACGAUCUCCCAUGAUAGCAAAUCCUAUAGCUGUAGCCAUGGCAAUCUUCUGGAAUUCUUUUCUGUCGGGUUUAGUGCAUCUUUUAACCAGCCGAAUUGAGUCCUUUACAAACUGCCGGCUUGGCUCCAACAGAGGAUUGAGCAUCA
B17: chr7:102952668:102952669:+_ENSG00000105819_ENST00000453466|hu_hu|motif|central (ssRNA)
RNA: GGGAGUUCUACAGUCCGACGAUCCUGUUUAAAAUCUGGUAGUUGCUUAAUGGGACCAACAGCAGCAAUAGCUGGACUCCGGUUAUAAAUGUAUUUGGUACAUACUUCUCGAAUUGUCUCAGCAUUCACAGCAUCAAUUCUUGCCAACAGAGGAUUGAGCAUCA
B18: 14029214_14029334_1494_CDS_ENSG00000175595_ENST00000311895|human|control|control (ssRNA)
RNA: GGGAGUUCUACAGUCCGACGAUCACGAUAUCCUUCCUCGACAUCUCCUUCCUCUUCCAGUUCUUCAGGUUUUCCUACCAUUUGAGUUAAGGUCAACUUCCGUUUUUUCUUUUUGAGGGUUCUUUCUUUGGUAGAAGCCCGUUCCAACAGAGGAUUGAGCAUCA
B19: chr16:94651144:94651145:+_ENSMUSG00000040785_ENSMUST00000117648|mus_hu|mus_mus_mus_hu_True|18_18 (ssRNA)
RNA: GGGAGUUCUACAGUCCGACGAUCAUUUUCUUGAAUCAAGUGGCGAAUAACAUAGUCCACUGCUUCAUUUAGAAAAUUUCUGCUAGAAAAACAGGUUGUAUAGUCUUCUGUGCUCAAAACCUUCCAAGAAAGCAAUUCUUUGAGCAACAGAGGAUUGAGCAUCA
B20: chr1:59924863:59924864:+_ENSMUSG00000067336_ENSMUST00000087435|mus_mus|FALSE|FALSE (ssRNA)
RNA: GGGAGUUCUACAGUCCGACGAUCGUUGCCAAAUUUUAGCCGGGGUUCUUUUGUUGAAUUUUUGGUGUUCAAAGGCAAACUAGUAGGUCUCUUAGGAAGGUUCUGUUGCUUAGGGAGAGGAUAGAUCUGAGCAGGUGGAACAUCCAACAGAGGAUUGAGCAUCA
B21: chr4:115894766:115894767:+_ENSMUSG00000028698_ENSMUST00000030464|mus_hu|mus_mus_mus_hu_True|48_88 (ssRNA)
RNA: GGGAGUUCUACAGUCCGACGAUCUUCCACACGGAAAUGUACUUCGGGUUUCCAACGGGCCAGUACCAGUCCGGCCAAACUACCCGAUGAGGACAAGCCCCCUCUCUCCUACAGAACACAACAAAAUGCCCCCGAACUUUCAAGCAACAGAGGAUUGAGCAUCA
B22: chr19:59067291:59067292:-_ENSG00000130725_ENST00000253023|hu_hu|motif|central (ssRNA)
RNA: GGGAGUUCUACAGUCCGACGAUCUGGGUCGGGGGAGGCAGCGCCGACCUUAAUCACAUGGUGUUAAAAAAAAAAAAAUAACGGGGGGCACGUGGCAGGAAGGGGAGGCAAGGCCAAGGCAGGGGAUUCCCCCACCGGCCGCCCCAACAGAGGAUUGAGCAUCA

Some of the results follow.

This assay has as its target T1, UNK ZnF1-3. The experiment in a line: nsRBNS (natural sequence RNA bind-n-seq); RBNS binding buffer (assumed for nsRBNS): 25 mM Tris pH 7.5, 150 mM KCl, 3 mM MgCl2, 0.01% Triton X-100, 500 ug/ml BSA, 20 U/ml SUPERase-In, 4 C; UNK is unkempt and MSI1 is Musashi-1; names of the RNAs are library labels; protein concentration not given here; high values mean tight binding.
For the molecule B1, the binding signal stood at 0.664 enrichment R.

B2: the binding signal worked out at 0.33 enrichment R.

In the case of B3, the binding signal worked out at 0.676 enrichment R.

For the molecule B4, the binding signal is 0.473 enrichment R.

In turn, B5 had a binding signal of 1.15 enrichment R.

Turning to B6, the binding signal was found to be 0.584 enrichment R.

B7: the binding signal was 1.18 enrichment R.

Regarding B8, the binding signal turned out to be 1.04 enrichment R.

For B9, the binding signal was found to be 0.586 enrichment R.

B10: the binding signal was found to be 0.59 enrichment R.

In turn, B11 displayed a binding signal of 0.621 enrichment R.

In the case of B12, the binding signal turned out to be 1.34 enrichment R.

In turn, B13 yielded a binding signal of 0.525 enrichment R.

As to B14, the binding signal came out at 0.814 enrichment R.

Molecule B15 gave a binding signal of 0.811 enrichment R.

Consider B16, for which the binding signal is 0.673 enrichment R.

B17 came in with a binding signal of 1.15 enrichment R.

In turn, B18 gave a binding signal of 0.307 enrichment R.

For the molecule B19, the binding signal stood at 0.512 enrichment R.

As to B20, the binding signal stood at 1.55 enrichment R.

In turn, B21 had a binding signal of 1.17 enrichment R.

The molecule B22 came in with a binding signal of 3.02 enrichment R.
